Data published in the supplement of paper PMC11417369.
± gives the standard deviation of the averaged measurements. The list shows a part of the results.

Tested on: PfAP2-EXP AP2 domain (GST-tagged)
Assay: gcPBM binding intensity (ln(normalized median fluorescence intensity)); higher = stronger DNA binding
In short: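 An Agilent 4 × 180k array carrying primer-extended double-stranded 36-bp intergenic genomic probes and negative controls received GST-tagged P. falciparum DNA-binding domains expressed in E. coli, about 25 μg on average, for 1 h. The binding buffer contained 1× PBS, 1% milk, 0.2 mg/ml BSA, 0.5% salmon testes DNA and 0.03% Triton X-100. Binding intensity is the top Masliner-normalised natural-log median intensity across replicate spots of either probe orientation, read after Alexa488 anti-GST antibody staining and a 488 nm scan.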

Q: With “TATATATATATATATAAGCTTATAATAAAACAAAAA [XGTACX_negctrl_site568]” as the sequence, how does the “gcPBM binding intensity (ln)” value read?
A: 10.1 ± 0.32

Q: Which “gcPBM binding intensity (ln)” value does the source give for “TGTATTAATAAAAATACACACATCATATTATATAAA [CACACA_site3534]” here?
A: 8.22 ± 0.33

Q: How did the “gcPBM binding intensity (ln)” value turn out when “AATCCTTACAGACACACACACACGAATAAATAAAAA [CACACA_site480]” was run?
A: 8.66 ± 0.59

Q: How did the “gcPBM binding intensity (ln)” value turn out when “TTATAATTTTTGAGCACACACAAGCATATATATATA [CACACA_site1798]” was run?
A: 9.92 ± 0.34

Q: With “TATGTATTATCAAAAAGTACTAAAAAAAAATAATAA [XGTACX_site4703]” as the sequence, how does the “gcPBM binding intensity (ln)” value read?
A: 8.73 ± 0.47

Q: How did the “gcPBM binding intensity (ln)” value turn out when “TATATATGTATATGTGTGCACCTTATTTCTTTTATT [GTGCAC_site9513]” was run?
A: 9.4 ± 0.38

Q: With “ATAAATGTTATGCATACACACTTTATACCTATTTAA [CACACA_site5967]” as the sequence, how does the “gcPBM binding intensity (ln)” value read?
A: 8.54 ± 0.42

Q: How did the “gcPBM binding intensity (ln)” value turn out when “ACAGTATTTCGAGATGGTACACATATATATATATAT [XGTACX_site6880]” was run?
A: 10 ± 0.32

Q: How did the “gcPBM binding intensity (ln)” value turn out when “AAAAAAAAAAAAAAAAGGGGGGGAGGGATTGAAAAA [CACACA_negctrl_site193]” was run?
A: 10.22 ± 0.042

Q: “AATGAGGATATATACACACATACATTAAAAAAATAT [CACACA_site1849]” was tested. Which “gcPBM binding intensity (ln)” value did it give?
A: 8.57 ± 0.5

Q: For “ATGAGTTACATGGGAAAAATATATATATATATATAT [CACACA_negctrl_site579]”, which “gcPBM binding intensity (ln)” value is on record?
A: 10.1 ± 0.31

Q: For “TTGTTGTATTATTTATGTACATATGTATATGTATAT [XGTACX_site1315]”, which “gcPBM binding intensity (ln)” value is on record?
A: 8.83 ± 0.23

Q: With “TTTAAAAGATAAAACACACATACTAATAAAAAACAA [CACACA_site2556]” as the sequence, how does the “gcPBM binding intensity (ln)” value read?
A: 8.82 ± 0.45

Q: Which “gcPBM binding intensity (ln)” value does the source give for TTGTATCCTTAATGCATGCACCAAATAACAAAAGTA here?
A: 10.2 ± 0.38

Q: With “TGATAAATATGGAGCACACACACATAAACATACATA [CACACA_site420]” as the sequence, how does the “gcPBM binding intensity (ln)” value read?
A: 8.77 ± 0.56

Q: Which “gcPBM binding intensity (ln)” value does the source give for “ACATATATAAAATAATGTACATTTTTAAGAATGCGT [XGTACX_site7654]” here?
A: 8.6 ± 0.32

Q: For “ATTATAATTGCATATACACACAAAGGTTCATAACAA [CACACA_site7440]”, which “gcPBM binding intensity (ln)” value is on record?
A: 8.62 ± 0.4

Q: For “ACAAGTAATTAAGAGTGTACATAACTATAAATCCAA [XGTACX_site5215]”, which “gcPBM binding intensity (ln)” value is on record?
A: 8.68 ± 0.4

Q: “TATAATAAAATATGTACACACATACACCCATATATA [CACACA_site4808]” was tested. Which “gcPBM binding intensity (ln)” value did it give?
A: 8.71 ± 0.38

Q: For “TGTATGTATGTATTATTTGTTATTTTAATTTTTTTG [TGCATGCA_negctrl_site256]”, which “gcPBM binding intensity (ln)” value is on record?
A: 9.03 ± 0.28

Q: “GATATGATGAGATTGATATTCATAAGAGGATTAATG [GTGCAC_negctrl_site515]” was tested. Which “gcPBM binding intensity (ln)” value did it give?
A: 8.37 ± 0.46

Q: How did the “gcPBM binding intensity (ln)” value turn out when “AAAAATGATATGAGTTGTACATAAGTAAGAATTATT [XGTACX_site7089]” was run?
A: 8.62 ± 0.42

Q: For “TAAAAACGATTTTTTGCACACACATAATAAGCAGAA [CACACA_site3870]”, which “gcPBM binding intensity (ln)” value is on record?
A: 9.01 ± 0.4

Q: How did the “gcPBM binding intensity (ln)” value turn out when “GGACAAGTTAAACGCACACAAATATATACCCCCATA [CACACA_site4996]” was run?
A: 9.54 ± 0.4

Q: How did the “gcPBM binding intensity (ln)” value turn out when “TATTATATATCAAAATGTACATTAATTTGAGTAATT [XGTACX_site5434]” was run?
A: 8.3 ± 0.39

Q: Which “gcPBM binding intensity (ln)” value does the source give for “GATGTGATGTATTTGGTATTTTTCGATGTTGGTAGG [CACACA_negctrl_site355]” here?
A: 8.79 ± 0.73

Q: How did the “gcPBM binding intensity (ln)” value turn out when “TGTTCAGTAGGGCACACACACAACAAAATAAAAAAA [CACACA_site378]” was run?
A: 8.76 ± 0.57

Q: With “TTACCTCTTTGAAATATACACACTAATCATATCAAC [CACACA_site8778]” as the sequence, how does the “gcPBM binding intensity (ln)” value read?
A: 8.46 ± 0.33

Q: For “TTTTTGCTATTCTATTATATATATAATATATTTTAC [CACACA_negctrl_site262]”, which “gcPBM binding intensity (ln)” value is on record?
A: 8.84 ± 0.33

Q: How did the “gcPBM binding intensity (ln)” value turn out when “CTTTTTTCAAAACACACACACAAGAAAATATATATA [CACACA_site3109]” was run?
A: 8.82 ± 0.51

Q: “TTTTTTTTTTTTGTGCGTACATACCATTTTAATAAT [XGTACX_site2760]” was tested. Which “gcPBM binding intensity (ln)” value did it give?
A: 8.78 ± 0.38

Q: “GAGATTTATTTATGTGCACACTAGAACAATTGGATC [CACACA_site2090]” was tested. Which “gcPBM binding intensity (ln)” value did it give?
A: 9.05 ± 0.3

Q: “AAGACATTTTTTAAGGTGCTTTGGAAAAAGGAGTAT [GTGCAC_site9816]” was tested. Which “gcPBM binding intensity (ln)” value did it give?
A: 8.77 ± 0.39

Q: “TTTAAAAGATAAAGACTGCACTTTAAGCACACAAAT [GTGCAC_site9752]” was tested. Which “gcPBM binding intensity (ln)” value did it give?
A: 8.69 ± 0.23

Q: “AATAAATATATAAATACACACAAACATACAGATATA [CACACA_site6088]” was tested. Which “gcPBM binding intensity (ln)” value did it give?
A: 8.9 ± 0.73

Q: For “AATTCCTATAATGAGAGTACGCATTAGAACAGTAGG [XGTACX_site5721]”, which “gcPBM binding intensity (ln)” value is on record?
A: 8.79 ± 0.3

Q: “TTGATAAAAAAAAAAAAATAAAAAAAAAATAAAAAA [XGTACX_negctrl_site480]” was tested. Which “gcPBM binding intensity (ln)” value did it give?
A: 8.05 ± 0.37

Q: With “AATTAATGGAAACAAGTCAAATGATCTTTATGCATA [TGCATGCA_negctrl_site540]” as the sequence, how does the “gcPBM binding intensity (ln)” value read?
A: 8.47 ± 0.49

Q: How did the “gcPBM binding intensity (ln)” value turn out when “AAATTGTAGAAGCGTATTTCTCGAACTGGATGAATA [CACACA_negctrl_site1373]” was run?
A: 8.71 ± 0.54

Q: With TAAAGTGTAAAGAAGGTGCTCATTATTTATTTTTTT as the sequence, how does the “gcPBM binding intensity (ln)” value read?
A: 8.19 ± 0.33

Q: How did the “gcPBM binding intensity (ln)” value turn out when “TTTATATCGACTCTTCTTTATATAAGTTGTGATGTT [TGCATGCA_negctrl_site362]” was run?
A: 8.64 ± 0.35

Q: With “AAAAAAGAAACAAACACACATACATACAAACAAACA [CACACA_site142]” as the sequence, how does the “gcPBM binding intensity (ln)” value read?
A: 8.59 ± 0.26

Q: How did the “gcPBM binding intensity (ln)” value turn out when “TTTATATTAGGTCTTGAACGATTTTCATCATTATTA [TGCATGCA_negctrl_site100]” was run?
A: 8.27 ± 0.4

Q: With “ATATGATATATTTTATGTACATATAAAACATATATA [XGTACX_site4297]” as the sequence, how does the “gcPBM binding intensity (ln)” value read?
A: 8.3 ± 0.22

Q: How did the “gcPBM binding intensity (ln)” value turn out when “TTATACTTTTTTTCTTGGTGTAGAAAAAAAAGTTAG [CACACA_negctrl_site1207]” was run?
A: 8.39 ± 0.47

Q: How did the “gcPBM binding intensity (ln)” value turn out when “AGTTTCCTTGAGAAAAGTACGTAATACTACATATAT [XGTACX_site818]” was run?
A: 8.46 ± 0.28

Q: TCCTGCCTCTCTTTGGTGCGTTGTAACCCTCGAGGA was tested. Which “gcPBM binding intensity (ln)” value did it give?
A: 8.87 ± 0.22

Q: How did the “gcPBM binding intensity (ln)” value turn out when “AAAATTTAATATAATGCACACATAAAAAAAAATTCA [CACACA_site8640]” was run?
A: 8.48 ± 0.11

Q: With “TAAATTATTTATAAAGCACACAAGAAAAAATAAAAT [CACACA_site2132]” as the sequence, how does the “gcPBM binding intensity (ln)” value read?
A: 8.96 ± 0.42

Q: “ATATTAATATACATATGTACATATATATATATATAT [XGTACX_site7425]” was tested. Which “gcPBM binding intensity (ln)” value did it give?
A: 10.2 ± 0.24

Q: With “TAAAGGCAAACAAACACACACACATATATACATATA [CACACA_site2123]” as the sequence, how does the “gcPBM binding intensity (ln)” value read?
A: 8.61 ± 0.57

Q: Which “gcPBM binding intensity (ln)” value does the source give for “AAAAATTAACAAAAGGTGCAAACAAATAGTGGTTTT [GTGCAC_site9998]” here?
A: 8.865 ± 0.049

Q: With “CCAATACTGTTTAAATGTACAAGTAGGAGGTTAATT [XGTACX_site7260]” as the sequence, how does the “gcPBM binding intensity (ln)” value read?
A: 8.78 ± 0.44

Q: Which “gcPBM binding intensity (ln)” value does the source give for “TTTTTTTTTTATTTTGCACACTTCTAATTTAGTTGT [CACACA_site3429]” here?
A: 8.87 ± 0.37

Q: For “AAAAAAGTAAAAAGTGCATGTAAAATATAAGTATCT [TGCATGCA_site55]”, which “gcPBM binding intensity (ln)” value is on record?
A: 9.23 ± 0.38

Q: “GTTATTCTTAATTTTTGTACACATTTTTATATTATT [XGTACX_site7227]” was tested. Which “gcPBM binding intensity (ln)” value did it give?
A: 9.23 ± 0.45
